{
  "source": "PubChem BioAssay AID504832",
  "about": "(National Center for Advancing Translational Sciences (NCATS), 2011)",
  "note": "About 18,000 (5.8%) of roughly 310,000 compounds were called active. The inconclusive results got no clear call from the source; some entries with a clear call stand among them for comparison. Calls follow the shape of the dose curve; as a rule, active = well fitted inhibition curve with a large enough effect; inconclusive = small, poorly fitted or top-dose-only effect, or another doubt; inactive = no such curve, though single readings can be large or run the other way. No potency is given beside an inconclusive call; the fits are too rough. % is scaled to controls: 0 for no effect and ±100 for the full control effect; potency is read from the fitted curve at half-maximal effect; tags tell the direction and shape of the fitted curve.",
  "data": [
    {"experiment": "Primary qHTS for delayed death inhibitors of the malarial parasite plastid, 48 hour incubation", "conditions": "P. falciparum luciferase growth in erythrocytes; series mostly up to 28.7 µM; activity change, negative = inhibition: at the top concentration", "in_short": "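First compound was added to culture medium, then infected red cells at 0.1% parasitemia and 2% hematocrit (final). After incubation at 37 C under 5% CO2, luciferase detection reagent was dispensed and light output recorded.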", "values": [
      {"smiles": "O=C(CCl)c1cc2c3c(c1)CC(=O)N3CCC2", "Potency": "inconclusive [inhibitor, partial curve]"},
      {"smiles": "Cc1n[nH]c(=S)n1-c1ccccc1", "Potency": "inconclusive [inhibitor, partial curve, poor fit]"},
      {"smiles": "COc1cc(O)sc1C=Nc1ccc(Cl)cc1Cl", "activity change, negative = inhibition": "inactive: 32.4%"},
      {"smiles": "Cc1nn(-c2ccccc2)nc1C(=O)NNC(=O)c1cccc2ccccc12", "activity change, negative = inhibition": "inactive: 77.7%"},
      {"smiles": "CCCCCNC(=O)c1cc(S(=O)(=O)N2CCCC2)ccc1F", "activity change, negative = inhibition": "inactive: -14%"},
      {"smiles": "O=C(NCc1ccco1)c1cccc(-c2nnc(-c3ccccc3)o2)c1", "Potency": "inconclusive [inhibitor, single point]"},
      {"smiles": "Cc1cccc(CS(=O)(=O)Cc2ccc(C(=O)NC3CCCCC3)o2)c1", "Potency": "inconclusive [inhibitor, single point]"},
      {"smiles": "NC(=S)N=Nc1c(O)n(CCCl)c2ccccc12", "Potency": "inconclusive [inhibitor, single point]"},
      {"smiles": "Cc1cc(C)c(NC(=O)CC(C)(C)C)c(Cl)c1", "Potency": "inconclusive [inhibitor, full curve, poor fit]"},
      {"smiles": "Cn1c(=O)c2c([nH]c(OCc3ccc(Cl)cc3Cl)[n+]2Cc2ccc(F)cc2)n(C)c1=O", "Potency": "inconclusive [inhibitor, partial curve]"},
      {"smiles": "CCOC(=O)N1CCC(N2C(=O)c3ccccc3C2Nc2cc(Cl)c(OC)cc2OC)CC1", "note": "(stereo not given)", "Potency": "active: 13.1 µM"},
      {"smiles": "CN(C)S(=O)(=O)c1cccc(NC(=O)c2cc(-c3cccs3)nn2-c2cccc(Cl)c2)c1", "Potency": "inconclusive [inhibitor, single point]"},
      {"smiles": "COc1ccc(CN2CCN(S(=O)(=O)c3ccc(NC(C)=O)cc3)CC2)cc1", "Potency": "inconclusive [inhibitor, single point]"},
      {"smiles": "CC1(C)C[C@@H]2C[C@@](C)(CN2C(=O)c2ccccc2)C1", "activity change, negative = inhibition": "inactive: 0.454%"},
      {"smiles": "CCC(=O)N(Cc1cc(=O)[nH]c2ccccc12)c1ccccc1OC", "activity change, negative = inhibition": "inactive: 10.6%"},
      {"smiles": "CCn1c(C2CCN(S(=O)(=O)c3ccc(OC)cc3)CC2)n[nH]c1=S", "activity change, negative = inhibition": "inactive: 13.4%"},
      {"smiles": "O=C(NC1CCCCC1)NC1(C(=O)NCCCN2CCOCC2)CCCCC1", "activity change, negative = inhibition": "inactive: 18.1%"},
      {"smiles": "Cc1cc(C)cc(Nc2ccc([N+](=O)[O-])nc2[N+](=O)[O-])c1", "Potency": "inconclusive [inhibitor, single point]"},
      {"smiles": "CC(C)(C)NC(=O)NC(=O)CN1CCN(c2ccc(O)cc2)CC1", "Potency": "inconclusive [inhibitor, partial curve, poor fit]"},
      {"smiles": "COc1ccc(CC(=O)NCCc2ccc(Cl)cc2Cl)cc1", "Potency": "inconclusive [inhibitor, single point]"},
      {"smiles": "CCc1cc2c(=O)n(Cc3ccco3)c(SCc3c(C)noc3C)nc2s1", "Potency": "inconclusive [inhibitor, partial curve]"},
      {"smiles": "COc1ccc2c(c1)-c1nc(/N=C/c3c(O)ccc4ccccc34)sc1CC2", "activity change, negative = inhibition": "inactive: 10.7%"},
      {"smiles": "Cc1ccc2c(c1)N(CC(=O)NCCc1ccccc1)C(=O)c1cccnc1O2", "activity change, negative = inhibition": "inactive: -22.8%"},
      {"smiles": "Cc1ccc(S(=O)(=O)NCC(c2cccnc2)N2CCc3ccccc32)cc1", "note": "(stereo not given)", "Potency": "inconclusive [inhibitor, single point]"},
      {"smiles": "O=C(CSCc1ccccc1Cl)NN=C1CCCCCC1", "activity change, negative = inhibition": "inactive: 6.59%"},
      {"smiles": "CCOC(=O)C1CCCN(C(=S)NC(=O)/C=C/c2ccc(F)cc2)C1", "note": "(stereo not given)", "Potency": "inconclusive [inhibitor, single point]"},
      {"smiles": "O=C(C[n+]1cccc2ccccc21)c1ccc(Br)cc1", "Potency": "inconclusive [inhibitor, full curve]"},
      {"smiles": "O=C1NC(=O)C(=Cc2ccc(N3CCN(C(=O)c4ccccc4)CC3)c([N+](=O)[O-])c2)C(=O)N1", "activity change, negative = inhibition": "inactive: 4.17%"},
      {"smiles": "CCc1ccccc1NC(=O)CN1CCN(C(=O)CN2C(=O)NC3(CCCC3)C2=O)CC1", "Potency": "inconclusive [inhibitor, single point]"},
      {"smiles": "O=C(CSc1nc(-c2ccco2)cc(C(F)(F)F)n1)N1CCN(c2cccc(Cl)c2)CC1", "Potency": "inconclusive [inhibitor, single point]"},
      {"smiles": "CCOC(=O)N1CCN(C(=O)CSCC(=O)Nc2nc(-c3ccc(-c4ccccc4)cc3)cs2)CC1", "Potency": "inconclusive [inhibitor, partial curve, poor fit]"},
      {"smiles": "O=C(NCC(c1ccco1)N1CCc2ccccc2C1)c1ccc(Cl)cc1", "note": "(stereo not given)", "Potency": "inconclusive [inhibitor, single point]"},
      {"smiles": "CCOC(=O)C1=NN(C(C)=O)C2(CC(=O)N(c3ccc(C)c(C)c3)C2=O)C1", "note": "(stereo not given)", "activity change, negative = inhibition": "inactive: -9.16%"},
      {"smiles": "COc1ccc(-n2ccnc2SCC(=O)NC2CCCC2)cc1", "activity change, negative = inhibition": "inactive: -7.48%"},
      {"smiles": "COc1cc(F)c(C2=CC(=O)C[C@H](c3ccc(Cl)cc3)C2)cc1F", "Potency": "inconclusive [inhibitor, single point]"},
      {"smiles": "Cn1c(CN2CCN(c3cccc(Cl)c3)CC2)nc2ccccc21", "Potency": "active: 13.1 µM"},
      {"smiles": "CCc1nc(NCC2CCCN2CC)c2nnn(Cc3ccccc3F)c2n1", "note": "(stereo not given)", "Potency": "inconclusive [inhibitor, single point]"},
      {"smiles": "Cc1cccc(N2CCN(C3CCCCC3NS(=O)(=O)c3ccccc3)CC2C)c1", "note": "(stereo not given)", "Potency": "inconclusive [inhibitor, partial curve]"},
      {"smiles": "C/C(=N\\N=C1\\NC(=O)C(CC(=O)Nc2ccccc2F)S1)C1CCCCC1", "note": "(stereo not given)", "Potency": "inconclusive [inhibitor, single point]"},
      {"smiles": "COCCNC(=S)N1CCc2cc(OC)c(OC)cc2C1COc1ccc(F)cc1", "note": "(stereo not given)", "Potency": "inconclusive [inhibitor, partial curve, poor fit]"},
      {"smiles": "O=C(C1=C[C@H](c2coc3ccccc3c2=O)C[C@H](OCCCCO)O1)N1CCN(Cc2ccccc2)CC1", "Potency": "inconclusive [inhibitor, partial curve]"},
      {"smiles": "Cc1ccc(S(=O)(=O)N(C)C)cc1NC(=O)CSc1ccc2c(c1)OCCO2", "Potency": "inconclusive [inhibitor, single point]"},
      {"smiles": "Nc1ncc(-c2nnnn2-c2ccc(Cl)cc2)c(-c2ccc(Cl)cc2)n1", "activity change, negative = inhibition": "inactive: -5.96%"},
      {"smiles": "CCCC/C(O)=C1\\C(=O)CCCC1=NCCc1c(C)[nH]c2ccccc12", "Potency": "inconclusive [inhibitor, single point]"},
      {"smiles": "CCOc1cc(N2CCOCC2)c(OCC)cc1NC(=S)NCCCOC", "activity change, negative = inhibition": "inactive: 9.55%"},
      {"smiles": "CCn1cc(C(=O)NCCCN(CC(C)C)CC(C)C)c(=O)c2cc(S(=O)(=O)N3CCOCC3)ccc21", "activity change, negative = inhibition": "inactive: -3.9%"},
      {"smiles": "Cc1cc(OCC(=O)N2CCC(C(=O)O)(c3ccccc3)CC2)c2c(C)cc(=O)oc2c1", "activity change, negative = inhibition": "inactive: 12.2%"},
      {"smiles": "CCCCOC(=O)CSc1nnc(-c2cc(OC)c(OC)c(OC)c2)o1", "Potency": "inconclusive [inhibitor, full curve, poor fit]"},
      {"smiles": "O=c1[nH]c(NC2CCCCC2)nnc1Cc1ccccc1", "Potency": "inconclusive [inhibitor, full curve, poor fit]"},
      {"smiles": "CCOCC(=O)N1CCc2ccccc21", "activity change, negative = inhibition": "inactive: 12.7%"},
      {"smiles": "O=C(Nc1ccnn1C1CCN(Cc2c[nH]c3ccccc23)CC1)c1ccccc1", "Potency": "inconclusive [inhibitor, single point]"},
      {"smiles": "CCC(C)NC(=O)c1nn(Cc2ccccc2)c(=O)c2ccccc12", "note": "(stereo not given)", "Potency": "inconclusive [inhibitor, partial curve]"},
      {"smiles": "O=C(Nc1ccc(S(=O)(=O)N2CCCC2)cc1)c1ccc([N+](=O)[O-])cc1", "Potency": "inconclusive [inhibitor, partial curve, poor fit]"},
      {"smiles": "CCOC(=O)C1(CCc2ccccc2)CCN(Cc2ccc(OC)cc2)CC1", "Potency": "inconclusive [inhibitor, partial curve, poor fit]"},
      {"smiles": "C/C(=N/NC(=O)c1cccs1)c1cccc(NC(=O)C2CC2)c1", "activity change, negative = inhibition": "inactive: 31.4%"},
      {"smiles": "CC(Sc1ncc(C#N)c(N)n1)C(=O)Nc1ccccc1", "note": "(stereo not given)", "Potency": "inconclusive [inhibitor, single point]"},
      {"smiles": "NS(=O)(=O)c1ccc(CCNC(=O)C2CCCO2)cc1", "note": "(stereo not given)", "activity change, negative = inhibition": "inactive: 49.2%"},
      {"smiles": "CCOC(=O)c1cc2occc2n1CC(=O)Nc1ccc(OC)cc1OC", "Potency": "inconclusive [inhibitor, partial curve, poor fit]"},
      {"smiles": "CN(c1cccc(Cl)c1)S(=O)(=O)c1cccc(C(=O)Nc2nc3ccccc3[nH]2)c1", "Potency": "active: 14.7 µM"},
      {"smiles": "COc1ccccc1N1CCN(S(=O)(=O)c2ccc3c4c(cccc24)C(=O)N3C)CC1", "Potency": "inconclusive [inhibitor, partial curve]"},
      {"smiles": "COC(=O)c1ccc(C(=O)OC)c(NC(=O)C2CCCO2)c1", "note": "(stereo not given)", "Potency": "inconclusive [inhibitor, partial curve, poor fit]"},
      {"smiles": "Cc1ccc(S(=O)(=O)NC(=O)C2CCCCC2)cc1", "activity change, negative = inhibition": "inactive: -2.22%"},
      {"smiles": "COC(=O)c1ccc(CSc2nnc(N)s2)o1", "activity change, negative = inhibition": "inactive: 39%"},
      {"smiles": "Cc1cc(NC(=O)CSc2nnc(-c3cccnc3)n2N)no1", "activity change, negative = inhibition": "inactive: 5.88%"},
      {"smiles": "CCC(C)NC(=S)N1CCN(C(c2ccccc2)c2ccccc2)CC1", "note": "(stereo not given)", "Potency": "inconclusive [inhibitor, single point]"},
      {"smiles": "CCOc1ccc(S(=O)(=O)Nc2cccc(C(=O)N3CCN(c4ccccc4O)CC3)c2)cc1", "Potency": "inconclusive [inhibitor, single point]"},
      {"smiles": "CCN1CCN(c2cc(C)c3cc(NC(=S)N4CCOCC4)ccc3n2)CC1", "Potency": "inconclusive [inhibitor, full curve, poor fit]"},
      {"smiles": "Cc1nc2ccc(NC(=O)c3cncc(Br)c3)cc2s1", "Potency": "inconclusive [inhibitor, single point]"},
      {"smiles": "COc1cccc(-n2c(=O)n(Cc3ccccc3)c(=O)c3[nH]cnc32)c1C", "activity change, negative = inhibition": "inactive: -5.48%"},
      {"smiles": "CC(=O)c1ccc(S(=O)(=O)NCCC(=O)OC(C)C(=O)Nc2ccc(F)cc2)cc1", "note": "(stereo not given)", "Potency": "inconclusive [inhibitor, single point]"}
    ]}
  ]
}
